From the supplement of paper PMC12217912
Some of the results follow. Sequences were assembled here from the parent chain. Inactive controls read about 0.05.

B1: TEV protease; numbered along this chain (parent)
chain: MGESLFKGPRDYNPISSSICHLTNESDGHTTSLYGIGFGPFIITNKHLFRRNNGTLVVQSLHGVFKVKDTTTLQQHLVDGRDMIIIRMPKDFPPFPQKLKFREPQREERICLVTTNFQTKSMSSMVSDTSCTFPSGDGIFWKHWIQTKDGQCGSPLVSTRDGFIVGIHSASNFTNTNNYFTSVPKNFMELLTNQEAQQWVSGWRLNADSVLWGGHKVFMVKPEEPFQPVKEATQL

Variants of: B1
Assay: raw area under fraction-flipped curve 0-4 h after induction (AUC4h, not background-subtracted), DNA-recorder readout of cleavage of the substrate (dimensionless); higher = more cleavage of the substrate by the protease variant
Conditions: temperature: 34 °C; time window: 0-4 h after rhamnose induction
Procedure: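 In vivo DNA recorder in E. coli TOP10(DE3) ΔrhaA at 34 °C. Each TEVp single-site mutant (parent TEVp 0) is paired with a single-site variant of the 7-mer TEVs (canonical ENLYFQ|S). The substrate sits between flexible linkers in a Bxb1-sfGFP-TEVs-SsrA fusion, so cleavage stabilises Bxb1 and speeds flipping of a recombination array, read by NGS. The value is the raw area under the fraction-flipped curve over 0-4 h after rhamnose induction (AUC4h), with ≥20 reads per time point. It is not background-subtracted; inactive controls average about 0.047.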
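Also: Bxb1 expression induced with 0.2% (w/v) L-rhamnose at OD600 near 0.5, cultures sampled hourly, flipped fraction per protease–substrate barcode pair counted by paired-end Illumina sequencing.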

Row | Variant | area with substrate ENCYFQS | area with substrate ENDYFQS | area with substrate ENEYFQS | area with substrate ENFYFQS | area with substrate ENGYFQS | area with substrate ENKYFQS | area with substrate ENQYFQS | area with substrate ENSYFQS | area with substrate ENVYFQS | area with substrate ENWYFQS | area with substrate ENIYFQS | area with substrate ENNYFQS | area with substrate ENTYFQS | area with substrate ENMYFQS | area with substrate ENRYFQS | area with substrate ENYYFQS | area with substrate ENHYFQS | area with substrate ENPYFQS | area with substrate ENAYFQS
1 | F6I | 0.0689 | 0.0608 | 0.0546 | 0.0761 | 0.0891 | 0.0732 | 0.0593 | 0.11 | 0.0862 | 0.0692 |  |  |  |  |  |  |  |  | 
2 | N52E | 0.0664 |  | 0.0697 | 0.0625 | 0.0086 | 0.0454 |  | 0.0636 | 0.0541 |  | 0.0815 | 0.0453 | 0.0231 |  |  |  |  |  | 
3 | R87F | 0.0564 | 0.061 | 0.0707 | 0.0546 | 0.0587 |  | 0.0543 | 0.0628 | 0.0584 |  | 0.0723 | 0.0609 | 0.0567 | 0.0724 | 0.0419 | 0.11 |  |  | 
4 | I84T | 0.0596 |  |  | 0.059 |  |  |  | 0.0805 | 0.0563 |  | 0.0829 |  |  |  | 0.066 |  |  |  | 
5 | E107I | 0.0506 | 0.0692 |  |  | 0.0588 |  | 0.0565 |  |  | 0.0027 | 0.103 | 0.0649 | 0.0669 |  | 0.0569 | 0.0667 | 0.0412 | 0.0639 | 
6 | F65D | 0.0713 | 0.0478 | 0.058 |  |  | 0.0564 | 0.0576 | 0.0567 | 0.101 |  |  |  |  |  |  | 0.0604 |  | 0.0398 | 
7 | L5K | 0.0772 | 0.0515 | 0.0575 | 0.0586 | 0.0462 |  | 0.0362 | 0.0673 | 0.0837 | 0.0505 |  | 0.0584 | 0.0679 |  |  | 0.0685 |  |  | 
8 | L5C | 0.0911 | 0.0422 | 0.0557 |  | 0.0451 | 0.0605 |  |  | 0.0761 |  |  | 0.0676 |  | 0.003 | 0.0489 |  |  |  | 
9 | Q74Y | 0.0629 |  | 0.0582 | 0.052 | 0.0596 |  | 0.0559 |  | 0.0785 |  |  | 0.0692 |  | 0.0803 | 0.0644 | 0.0506 | 0.0638 | 0.0611 | 
10 | Q234Y | 0.0691 | 0.0588 | 0.0704 | 0.0251 | 0.0674 | 0.0654 | 0.0527 | 0.0677 |  |  | 0.11 | 0.0684 | 0.0896 |  | 0.0572 | 0.0665 | 0.0593 |  | 0.0652
11 | P225N | 0.0645 | 0.0566 | 0.0663 | 0.0523 | 0.0596 | 0.0495 | 0.071 | 0.0518 |  | 0.0649 | 0.133 |  | 0.0711 | 0.0432 | 0.0583 | 0.0514 | 0.0605 | 0.0511 | 0.0718
12 | P225G | 0.062 | 0.0604 | 0.0698 | 0.0632 | 0.0733 | 0.0628 | 0.0692 | 0.0745 | 0.0777 | 0.0701 |  |  |  | 0.0839 |  | 0.0559 |  |  | 0.0833
13 | P225M | 0.083 | 0.0594 | 0.0178 |  | 0.0669 |  |  | 0.0646 | 0.0685 |  | 0.104 | 0.0618 | 0.0625 | 0.0905 | 0.0662 |  | 0.0454 | 0.0646 | 0.0619
14 | P225E | 0.0569 |  | 0.054 | 0.0606 |  | 0.0521 | 0.0551 | 0.0714 | 0.108 |  |  |  | 0.0592 |  | 0.0506 |  |  | 0.0638 | 0.0535
